Measured values reported in paper PMC5473638.
Results are given in words; binding and its absence hold for the method and conditions named. Binding seen in cells or lysates may run through a third protein. Some binding calls cover weakened binding; strength is not graded here. Sequences can lack the tags named with a protein.

Tests used:
[1] = target: p62 (mouse (endogenous in MEFs)) (UniProt Q64337); experiment: co-IP; lysates of MEFs expressing GFP–Cep63 or Flag(3×)–Cep63 incubated with anti-p62 antibody or normal rabbit IgG for 2 h at 4 °C; Dynabeads protein G, washed four times; western blot with anti-GFP or anti-Flag
Flag(3 × )–Cep63 (human) = Flag(3 × )–Cep63 (human) (UniProt Q96MT8); experiment: co-IP; lysates from MEFs expressing GFP–Cep63 and Flag–Cep63, immunoprecipitated with anti-Flag antibody and normal IgG; western blot
full-length p62 (mouse) = full-length p62 (mouse) (UniProt Q64337); experiment: proximity ligation; Duolink close proximity assay with anti-Flag and anti-p62 antibodies in fixed MEFs (WT, Atg5−/−, p62−/−, p62−/− with p62 plasmids) transiently transfected with Flag(3×)–Cep63 for 24 h; signal area per cell by In Cell Analyzer
[2] = target: p62 (mouse (endogenous in MEFs)) (UniProt Q64337); experiment: as above
[3] = target: p62 Δzinc finger mutant (mouse) (UniProt Q64337); experiment: as above
[4] = target: in vitro-translated p62 (mouse) (UniProt Q64337); experiment: co-IP; in vitro-translated p62 and in vitro-translated Flag–Cep63 incubated, immunoprecipitated with anti-p62 antibody or normal IgG for 2 h at 4 °C; Dynabeads protein G; western blot

B1: Flag(3 × )–Cep63 (protein, UniProt Q96MT8 1-703)
chain: MEALLEGIQNRGHGGGFLTSCEAELQELMKQIDIMVAHKKSEWEGRTHALETCLKIREQELKSLRSQLDVTHKEVGMLHQQVEEHEKIKQEMTMEYKQELKKLHEELCILKRSYEKLQKKQMREFRGNTKNHREDRSEIERLTAKIEEFRQKSLDWEKQRLIYQQQVSSLEAQRKALAEQSEIIQAQLVNRKQKLESVELSSQSEIQHLSSKLERANDTICANELEIERLTMRVNDLVGTSMTVLQEQQQKEEKLRESEKLLEALQEEKRELKAALQSQENLIHEARIQKEKLQEKVKATNTQHAVEAIRPREESLAEKKYTSQGQGDLDSVLSQLNFTHTSEDLLQAEVTCLEGSLESVSATCKQLSQELMEKYEELKRMEAHNNEYKAEIKKLKEQILQGEQSYSSALEGMKMEISHLTQELHQRDITIASTKGSSSDMEKRLRAEMQKAEDKAVEHKEILDQLESLKLENRHLSEMVMKLELGLHEAKEISLADLQENYIEALNKLVSENQQLQKDLMNTKSQLEISTQMCKKQNDRIFKPTHSRTTEFKNTEFKPTHGQHRHDGIKTEHYKTDLHSPRGQASDSINPMSRVLSPLSPQISPCSSTRSLTSYSLCKTHSLPSALDTNEANFSDTMSESMNDQEEFISSCSLPVSPLGSIATRFLEEEELRSHHILERLDAHIEELKRESEKTVRQFTALK
In the case of B1, the binding [1] is reported as “binds”, the binding (Flag(3 × )–Cep63 (human)) is reported as “binds” and the binding (full-length p62 (mouse)) is reported as “binds”. For the same binder, the binding [2] was “binds” and the binding [3] was “no binding”.

B2: GFP–Cep63 (protein, UniProt Q96MT8 1-703)
chain: B1 chain
For B2, the binding [1] was “binds”.

B3: in vitro-translated Flag–Cep63 (protein, UniProt Q96MT8 1-703)
chain: B1 chain
In the case of B3, the binding [4] is reported as “binds”.
